# Experimental data taken from PubChem BioAssay AID1240 (Sanford-Burnham Center for Chemical Genomics, 2008).
# Among all 50,000 compounds or so, about 800 (1.6%) showed an effect of 50% or more. Some of the results follow.
# Target: Bcl-2-like protein 10 (Homo sapiens) (UniProt Q9HD36)
# Assay: TR3 peptide-Bcl-B binding displacers, biochemical primary FP assay, phenotype converters (AID 1240);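 note: 0% = Bcl-B with tracer peptide and DMSO and 100% = tracer peptide lacking Bcl-B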
# Details: GST-Bcl-B / FITC-TR3 peptide fluorescence polarization; stronger effect = higher value; compound at 3.75 mg/L
# Sequence of UniProt Q9HD36 (Q9HD36 whole entry, looked up): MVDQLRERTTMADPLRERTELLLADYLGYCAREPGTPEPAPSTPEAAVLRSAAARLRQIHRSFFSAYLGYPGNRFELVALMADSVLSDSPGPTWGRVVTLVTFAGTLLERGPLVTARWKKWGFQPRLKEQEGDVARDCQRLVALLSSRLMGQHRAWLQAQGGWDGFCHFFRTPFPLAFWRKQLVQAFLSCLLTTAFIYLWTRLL
row,SMILES,displacement [%]
1,CCOc1ccc(N(CC(=O)NC(C)CC)S(=O)(=O)c2ccc(Br)cc2)cc1 (configuration not stated),-8.1
2,COC(=O)c1c(N)sc(C)c1-c1ccccc1,-1.2
3,C[C@@H]1O[C@@H](Nc2cccc3ccccc23)[C@H](O)[C@H](O)[C@H]1O,20.5
4,COc1cc(/C=C2\SC(=S)NC2=O)ccc1OS(=O)(=O)c1ccc(C)cc1,-98
5,CCOC(=O)c1oc2cccc(O)c2c1C,25.9
6,O=C(NC(Cc1ccccc1)Cc1ccccc1)c1ccccc1Br,-2.1
7,C/C(CC(C)C)=N\NC(=O)C(O)(c1ccccc1)c1ccccc1,-10.4
8,CC(C)CCc1c(O)nc(SCCN2CCOCC2)n(-c2ccccc2)c1=O,22.6
9,CCCCOc1ccc(S(=O)(=O)N=Nc2c(O)[nH]c3ccc(Br)cc23)cc1,-0.6
10,Cc1oc(/C=N/NC(=O)CN(c2ccccc2)S(=O)(=O)c2ccccc2)cc1Br,-10.3
11,CCOc1cc(/C=C2\SC(=S)N(/N=C/c3ccc(O)c(OCC)c3)C2=O)ccc1O,3.8
12,Cc1cccc(C(=O)Nc2c(C(=O)N3CCN(C)CC3)cnn2-c2ccccc2)c1,-9.8
13,O=C(Oc1ccc2c(=O)c(Oc3ccccc3Br)coc2c1)c1ccco1,9.4
14,Cc1cc(C)nc(SCC(=O)Nc2ccc(Cl)cc2)n1,0.8
15,Cc1ccc(C(=O)N/C(=C\c2cccc([N+](=O)[O-])c2)C(=O)N2CCCCC2)cc1,5.5
16,O=C1N/C(=N\N=C\c2ccc(O)cc2)SC1Cc1ccc(Br)cc1 (configuration not stated),-27
17,CN(C)CCCNC(=O)c1ccc([N+](=O)[O-])o1,5.1
18,CC(C)C(=O)NC(c1ccc(N(C)C)cc1)c1c(O)ccc2ccccc12 (configuration not stated),6.4
19,CC(C)CN1C(=O)/C(=C/c2c(F)cccc2Cl)SC1=S,6.9
20,COc1cc(/C=C(\C#N)C(N)=O)ccc1O,3.7
21,CCCOc1cccc(-c2nc3ccc(Cl)cc3c(=O)o2)c1,12.1
22,Cc1[nH]c2ccccc2c1C=Nc1cc(Cl)cc(Cl)c1,1.6
23,Cc1ccc(C(=O)NCCc2nc3ccccc3[nH]2)cc1[N+](=O)[O-],17.8

row,SMILES,displacement [%]
1,COc1ccc(C(=O)Nc2ccc(S(=O)(=O)NC(C)=O)cc2)cc1,13.1
2,CCC1=NN2C(=N)/C(=C/c3ccc(-c4ccc(Cl)cc4)o3)C(=O)N=C2S1,66.7
3,CCn1ccnc1C(O)c1cccc(OC)c1 (configuration not stated),12
4,COc1ccc(C(=O)Nc2ccc(Cc3ccncc3)cc2)cc1[N+](=O)[O-],-11.6
5,COc1ccccc1CC(=O)Nc1ccc(F)cc1F,7.8
6,COC(=O)c1c(C)[nH]c(/C=C2\C(=O)C=Cc3ccccc32)c1O,-30
7,Cc1ccccc1C(=O)NCCN(C)C,19.2
8,Cc1c(OCC(=O)C(C)(C)C)ccc2c(-c3ccccc3)cc(=O)oc12,8
9,C/C(=N/OCC(=O)Nc1sc2c(c1C#N)CCCC2)c1ccc(Br)cc1,-12.2
10,C/C(=C\COc1cc(=O)[nH]c2ccccc12)CCC(O)C(C)(C)O (configuration not stated),-4.5
11,O=C(NCc1ccccn1)c1cc([N+](=O)[O-])cc([N+](=O)[O-])c1,-14.6
12,O=C(Nc1cccc(S(=O)(=O)c2cccc(NC(=O)c3cccs3)c2)c1)c1cccs1,6.1
13,CCCOC(=O)Cc1c(O)c2ccccc2[nH]c1=O,2
14,CC(=O)C1=C(O)C(=O)N(CCN2CCNCC2)C1c1ccc(C)cc1 (configuration not stated),0.2
15,COc1ccc(C(=O)NCCN(C)C)cc1OC,5.2
16,CCOC(=O)c1ccc(N2C(=O)c3ccc(C(=O)Nc4ccccc4C(=O)O)cc3C2=O)cc1,10.8
17,NC1=NC(=O)/C(=C/c2ccc(-c3ccc([N+](=O)[O-])cc3Br)o2)S1,-5.3
18,CCc1ccccc1N1C(=O)NC(=O)/C(=C\c2cc(C)n(-c3cccnc3)c2C)C1=O,11.2
19,C/C(=N/NC(=O)C1C(=O)NCC1c1ccccc1)c1ccc2c(c1)CCCC2 (configuration not stated),4.2
20,CCOC(=O)CNC(c1ccccc1)c1cc(Br)ccc1NC(C)=O (configuration not stated),1
21,O=C(Nc1ccc(Cl)cc1)Nc1ccc(-c2nc3ccccc3s2)cc1,6.5
22,Oc1ccc(Br)cc1CN1CCN(C2CC3CCC2C3)CC1 (configuration not stated),3.5
23,CCOC(=O)C1=C(C)N=c2s/c(=C\c3ccc4c(c3)OCO4)c(=O)n2C1c1ccc(OC(C)=O)cc1 (configuration not stated),-50.4

row,SMILES,displacement [%]
1,O=C(NCc1ccccc1)c1cc2nc(-c3ccccc3)cc(C(F)(F)F)n2n1,-7.4
2,Cc1ccccc1NC(=O)c1c(-c2cnc3ccccc3c2C(=O)Nc2ccccc2C)cnc2ccccc12,1.5
3,Cc1ccc2c(c1)N(C(=O)c1ccco1)C(C)(C)c1ssc(=S)c1-2,23.6
4,COC(=O)C1=C(C)NC2=C(C(=O)c3ccccc32)C1c1ccc(-c2ccc([N+](=O)[O-])cc2Br)o1 (configuration not stated),46.9
5,C=CCN1C(=O)/C(=C\c2ccc(-c3cc([N+](=O)[O-])ccc3C)o2)C(=O)NC1=S,31.1
6,CCOC(=O)c1cc(CC)sc1NC(=O)c1cc(NS(=O)(=O)c2ccc(Cl)cc2)ccc1Br,5.5
7,CCC(Oc1ccccc1)C(=O)Nc1nc2ccc(S(C)(=O)=O)cc2s1 (configuration not stated),1.3
8,COc1ccc(-c2nc3sc4c(c3c(=O)[nH]2)CCCC4)cc1C,-19.4
9,N#C/C(=C/c1ccc(Sc2ccccc2)o1)C(=O)NCc1ccccc1,0.5
10,COc1ccc(N2C(=O)c3ccc(C(=O)Nc4cc(Cl)ccc4C(=O)O)cc3C2=O)cc1,8.7
11,CCOc1ccc(/C=N/Nc2nc(N3CCCCC3)nc(N3CCCCC3)n2)cc1OC,2.7
12,CC1=CC(C)(C)Nc2ccc(OC(=O)NC3CCCCC3)cc21,-3.6
13,Cc1cc(C(=O)Nc2ccccc2C(N)=O)ccc1[N+](=O)[O-],3.3
14,CCOc1ccc(-c2cc(C(=O)NC(C)C)c3ccccc3n2)cc1,-5.3
15,O=C1NC(=O)N(c2ccc(Br)cc2)C(=O)/C1=C\C=C\c1ccco1,14
16,CC(NC(=O)C(O)CN1CCOCC1)C1COc2ccccc2O1 (configuration not stated),4.2
17,COC(C)(C)C(=O)C(C(=O)c1ccccc1)/C(=C/C(=O)c1ccccc1)C(C)(C)OC (configuration not stated),23.7
18,O=C(NCCN1CCOCC1)c1ccccc1Br,-3.4
19,COc1ccc(OC)c(N(CC(=O)Nc2ccccc2Br)S(C)(=O)=O)c1,9.9
20,O=C1c2ccc3c4c(ccc(c24)C(=O)N1Cc1ccco1)CC3,9.5
21,O=C1c2ccccc2NC(c2ccc(O)cc2)N1c1ccccc1 (configuration not stated),12.7
